# According to PubChem BioAssay AID624417 (National Center for Advancing Translational Sciences (NCATS), 2012):
# About 6,400 (1.6%) of roughly 410,000 compounds were called active. The inconclusive results got no clear call from the source; some entries with a clear call stand among them for comparison. Calls come from the whole dose curve; as a rule, active = well fitted inhibition curve with a large enough effect; inconclusive = small, poorly fitted or top-dose-only effect; inactive = no such curve, though single readings can be large or run the other way. No potency is given beside an inconclusive call; the fits are too rough.
# Target: Glucagon-like peptide 1 receptor (Homo sapiens) (UniProt P43220)
# Sequence of UniProt P43220 (P43220 whole entry, looked up): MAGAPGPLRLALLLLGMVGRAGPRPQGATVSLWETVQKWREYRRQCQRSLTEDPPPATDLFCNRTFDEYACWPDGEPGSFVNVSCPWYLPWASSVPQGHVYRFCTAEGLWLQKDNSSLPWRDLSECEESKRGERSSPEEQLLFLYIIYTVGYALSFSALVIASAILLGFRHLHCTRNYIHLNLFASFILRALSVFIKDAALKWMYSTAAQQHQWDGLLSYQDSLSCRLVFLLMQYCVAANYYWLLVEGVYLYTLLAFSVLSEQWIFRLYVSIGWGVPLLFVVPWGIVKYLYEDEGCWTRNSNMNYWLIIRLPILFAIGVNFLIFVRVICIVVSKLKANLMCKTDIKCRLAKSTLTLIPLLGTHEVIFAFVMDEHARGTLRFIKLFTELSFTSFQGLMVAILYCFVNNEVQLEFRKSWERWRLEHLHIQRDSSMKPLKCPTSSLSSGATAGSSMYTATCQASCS
# Assay: qHTS of GLP-1 Receptor Inverse Agonists (Inhibition Mode); note: nearly all actives have a fitted effect of over 55% in size
# Details: HEK293 GLP-1R CRE-luciferase, luminescence, 24 h, GLP-1R form is constitutively active; series mostly up to 38.3 µM
# Summary of the method: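 Seeding at 200 cells/uL, 12 h culture, 24 hr compound treatment, then luciferase reagent and a luminescence read; cells are HEK293 stably expressing a constitutively active GLP-1R plus cAMP-responsive luciferase.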
# Potency is the fitted concentration of half-maximal effect; tags give direction and shape of the fitted curve.
row,Compound,Potency
1,CCOc1ccccc1CNCCN1CCOCC1,inactive
2,c1ccc(C2Nc3ccccc3Oc3ccccc32)cc1 (stereo not given),"inconclusive [inhibitor, single point]"
3,COc1ccc(C2CC(c3ccc(Br)cc3)=NN2C(=O)c2cccnc2)cc1 (stereo not given),"inconclusive [inhibitor, single point]"
4,CC(C)NC(=O)C1(C)CCN1C(=O)C1(c2ccccc2)CC1 (stereo not given),inactive
5,COc1ccccc1N(C)S(=O)(=O)c1ccc(C(=O)OCC(=O)Nc2ccccc2F)cc1,inactive
6,CN1CCN(c2nc3c(c(=O)[nH]c(=O)n3C)n2Cc2ccc([N+](=O)[O-])cc2)CC1,inactive
7,CCOc1cc(CNCCO)cc(Br)c1OCc1ccccc1Cl,"inconclusive [inhibitor, full curve, poor fit]"
8,COc1cc(CNCCSc2nnnn2C)cc(Br)c1OCc1ccccc1F,"inconclusive [inhibitor, partial curve, poor fit]"
9,COc1ccc(/C=C/C(=O)c2ccc3c(c2)OCO3)c(OC)c1,"inconclusive [inhibitor, single point]"
10,O=C1NC(Cc2ccc(O)cc2)c2nc3ccc(Cl)cc3c(=O)n2-c2cc3ccccc3cc21 (stereo not given),"inconclusive [inhibitor, partial curve]"
11,O=C(NCc1ccccc1Cl)c1cnc2sc(N3CCCCC3)nn2c1=O,inactive
12,Cc1ccc(C(CNS(=O)(=O)c2ccc(C)cc2)N2CCN(C)CC2)cc1 (stereo not given),"inconclusive [inhibitor, partial curve, poor fit]"
13,CN(Cc1ccccc1)Cc1nc2scc(-c3ccccc3)c2c(=O)[nH]1,"inconclusive [inhibitor, single point]"
14,COc1ccc(C(=O)C(C)OC(=O)C2CC3CCCC(C2)C3=O)cc1 (stereo not given),inactive
15,Cc1ccc(-c2noc(CCC(=O)N3CCN(c4cc(C)ccc4C)CC3)n2)cc1,"inconclusive [inhibitor, single point]"
16,COc1ccc(-c2csc(N3N=C(C)C(C)C3=O)n2)cc1 (stereo not given),"inconclusive [inhibitor, single point]"
17,Cc1ccc(S(=O)(=O)Nc2cccc(-c3ccc4nncn4n3)c2)cc1,"inconclusive [inhibitor, full curve, poor fit]"
18,CCN(CC)S(=O)(=O)c1ccc(N2CCCCC2)c(NC(=O)C2=COCCO2)c1,"inconclusive [inhibitor, partial curve, poor fit]"
19,CCOC(=O)c1c(-c2ccc(OC)cc2)csc1NC(=O)CSc1ncnc2sccc12,"inconclusive [inhibitor, partial curve, poor fit]"
20,COc1ccc2cc(/C=C3\SC(=S)NC3=O)c(N3CCOCC3)nc2c1,"inconclusive [inhibitor, single point]"
21,COc1ccc(-c2sc(Nc3ccccc3)n[n+]2-c2ccc(F)cc2)cc1Br,inactive
22,Cc1nnn(C23CC4CC(CC(CC(=O)Nc5ccc(C)c(Cl)c5)(C4)C2)C3)n1,"inconclusive [inhibitor, partial curve, poor fit]"

row,Compound,Potency
1,C=CCNC(=S)N1CCC(C(=O)c2ccc(C)cc2)CC1,"inconclusive [inhibitor, single point]"
2,C(=N\Nc1nc(-c2ccccc2)cs1)/c1cccs1,"inconclusive [inhibitor, single point]"
3,Cc1ccc(-c2cnc(NCc3ccc(C(F)(F)F)cc3)n2C)cc1,inactive
4,CCN(C(=O)Cn1c(=O)oc2cc(Cl)ccc21)c1cccc(C(F)(F)F)c1,"inconclusive [inhibitor, single point]"
5,COc1ccccc1C(c1c(N)n(C)c(=O)n(C)c1=O)C(C)[N+](=O)[O-] (stereo not given),inactive
6,CCc1nc(N2CCCCC2C)c2oc3ccccc3c2n1 (stereo not given),inactive
7,Cc1cc(Oc2ccccc2)nc(-c2ccccc2O)n1,"inconclusive [inhibitor, single point]"
8,O=C(NC(=S)Nc1ccc(Br)cc1)C1CCC1,"inconclusive [inhibitor, single point]"
9,CCn1cc(C(=O)N2CCN(c3ccccn3)CC2)c(=O)c2cc(S(=O)(=O)N3CCC(C)CC3)ccc21,"inconclusive [inhibitor, partial curve]"
10,COCCN1C(=O)c2ccccc2C1c1nnnn1-c1ccc2c(c1)OCCO2 (stereo not given),inactive
11,CN1CCN(c2ccc(NC(=O)c3ccc(C#N)cc3F)cc2Cl)CC1,"inconclusive [inhibitor, single point]"
12,C=CCc1ccc(OCCOc2cccc3ccc(C)nc23)c(OC)c1,"inconclusive [inhibitor, single point]"
13,CCC(C)OC(=O)C1=C(C)NC(=O)CC1c1ccccc1OC (stereo not given),"inconclusive [inhibitor, single point]"
14,Cc1ccnc(NS(=O)(=O)c2cc(-c3cc(C)no3)ccc2C)c1,inactive
15,CNC(=S)Nc1ccc(C)cc1,inactive
16,Cc1ccc(-n2ncc(C(=O)Nc3ccc4c(c3)OCO4)c2C2CCN(C(=O)OC(C)(C)C)CC2)cc1,"inconclusive [inhibitor, partial curve, poor fit]"
17,COc1ccccc1C(=O)NC(=O)CSc1nc(C)cs1,inactive
18,COc1ccc(NC(=S)N(CCc2c(C)[nH]c3ccc(C)cc23)Cc2ccco2)cc1,"inconclusive [inhibitor, partial curve, poor fit]"
19,CCOC(=O)CCC(=O)c1c(C)oc2ccc(OC)cc12,"inconclusive [inhibitor, single point]"
20,COc1ccc(NC(=O)C2CCC2)cc1S(=O)(=O)Nc1cc(C)ccc1Br,"inconclusive [inhibitor, single point]"
21,Cc1cccc(C(=O)N2CCC(=O)N([C@H](COCc3ccccc3)Cc3ccccc3)CC2)c1,"inconclusive [inhibitor, single point]"
22,COc1ccc(NC(=O)CSc2nc(-c3ccccc3)nc3cc(=O)[nH]n23)cc1,"inconclusive [inhibitor, single point]"

row,Compound,Potency
1,COC(=O)C1=C(C)N(Cc2ccccc2)C(=NCC(C)C)N[C@H]1c1cccc(F)c1,"inconclusive [inhibitor, partial curve, poor fit]"
2,COC(=O)C(C(=O)OC)C(CC(=O)c1ccc(Br)cc1)c1ccccc1 (stereo not given),"inconclusive [inhibitor, partial curve, poor fit]"
3,O=C(Nc1ccccc1N1CCCCC1)c1ncoc1-c1cccc(F)c1,"inconclusive [inhibitor, partial curve, poor fit]"
4,O=C(NCC1CC1(Cl)Cl)Nc1ccc(Cl)c(Cl)c1 (stereo not given),"inconclusive [inhibitor, partial curve, poor fit]"
5,N/C(Cc1ccccc1)=N\OC(=O)c1cccc2ccccc12,active: 12.6 µM
6,CCOC(=O)c1c(C)[nH]c(C)c1S(=O)(=O)NCC(=O)N(C)c1ccc(C)c(C)c1,inactive
7,Cc1ccc(NC(=S)N=Nc2c(O)[nH]c3ccccc23)cc1,"inconclusive [inhibitor, partial curve, poor fit]"
8,NC(=S)N/N=C\c1c(OCc2ccccc2Cl)ccc2ccccc12,"inconclusive [inhibitor, full curve, poor fit]"
9,CC1CN(c2nc(-c3ccccc3)nnc2-c2ccccc2)CC(C)O1 (stereo not given),"inconclusive [inhibitor, partial curve, poor fit]"
10,O=C(Nc1ccc2nc(SCC(=O)N3CCCc4ccccc43)sc2c1)c1ccc(F)cc1,"inconclusive [inhibitor, partial curve, poor fit]"
11,COc1ccc2[nH]c(C(=O)N3CCC(CO)(Cc4cccc(C(F)(F)F)c4)CC3)c(C)c2c1,"inconclusive [inhibitor, partial curve, poor fit]"
12,O=S(=O)(c1cc(Br)c(Cl)s1)N1CCCC1,"inconclusive [inhibitor, single point]"
13,Cc1c(C(=O)Nc2ccc(Br)cc2F)sc2ncnc(N(C)C3CCCCC3)c12,inactive
14,CC1=C(C(=O)Nc2ccccc2C)C(c2ccc(C)o2)n2c(s/c(=C/c3ccccc3)c2=O)=N1 (stereo not given),"inconclusive [inhibitor, full curve, poor fit]"
15,Cc1cccc(N(CC(=O)NCc2ccc3c(c2)OCO3)C(=O)CCC(=O)Nc2ccccn2)c1C,"inconclusive [inhibitor, partial curve, poor fit]"
16,CCOc1ccc(CNc2ccc(N3CCCC3)cc2)cc1,inactive
17,O=C(CN1CCOc2ccccc21)N1CCC(Cc2ccccc2)CC1,"inconclusive [inhibitor, single point]"
18,S=C(NCc1ccco1)N/N=C/c1ccc(Cl)cc1,"inconclusive [inhibitor, single point]"
19,O=C(N/N=C/c1coc2ccccc2c1=O)c1ccc(Cl)cc1,"inconclusive [inhibitor, partial curve, poor fit]"
20,CCCNC(=O)C(Cc1ccc(I)cc1)NC(=O)c1ccc2ccccc2n1 (stereo not given),"inconclusive [inhibitor, partial curve, poor fit]"
21,COc1ccc(CCNC(=O)c2cccc3c2C(=O)N(C2CCCCC2)C3)cc1OC,"inconclusive [inhibitor, single point]"
